Laboratory results from PubChem BioAssay AID1476 (National Center for Advancing Translational Sciences (NCATS), 2009).
Hit rate of the full screen: of about 200,000 compounds, about 4,500 (2.2%) were called active. The inconclusive results got no clear call from the source; some entries with a clear call stand among them for comparison. Calls follow the shape of the dose curve; as a rule, active = well fitted inhibition curve with a large enough effect; inconclusive = small, poorly fitted or top-dose-only effect, or effect the other way; inactive = flat fitted curve, though single readings scatter. Where the call is inconclusive, the potency comes from a doubtful curve fit.

target: Cruzipain (Trypanosoma cruzi) (UniProt P25779); assay: qHTS Assay for Promiscuous and Specific Inhibitors of Cruzain (without detergent); conditions: purified cruzain, Z-FR-AMC fluorescence, no detergent; also: nearly all actives have a fitted effect of over 40% in size;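 as to max response, negative = inhibition: plate controls were enzyme without inhibitor for no effect and buffer without enzyme for full effect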
Outline: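 Detergent-free condition (0.00005% Triton X-100) in acetate buffer pH 5.5 with DTT. 1.5 nM enzyme and compound were pre-mixed 15 min, then 2 uM Z-FR-AMC substrate added; reaction progress from fluorescence change between first and third reads (60 s).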
Potency is read from the fitted curve at half-maximal effect; tags tell the direction and shape of the fitted curve.

UniProt P25779, sequence (P25779 whole entry, looked up): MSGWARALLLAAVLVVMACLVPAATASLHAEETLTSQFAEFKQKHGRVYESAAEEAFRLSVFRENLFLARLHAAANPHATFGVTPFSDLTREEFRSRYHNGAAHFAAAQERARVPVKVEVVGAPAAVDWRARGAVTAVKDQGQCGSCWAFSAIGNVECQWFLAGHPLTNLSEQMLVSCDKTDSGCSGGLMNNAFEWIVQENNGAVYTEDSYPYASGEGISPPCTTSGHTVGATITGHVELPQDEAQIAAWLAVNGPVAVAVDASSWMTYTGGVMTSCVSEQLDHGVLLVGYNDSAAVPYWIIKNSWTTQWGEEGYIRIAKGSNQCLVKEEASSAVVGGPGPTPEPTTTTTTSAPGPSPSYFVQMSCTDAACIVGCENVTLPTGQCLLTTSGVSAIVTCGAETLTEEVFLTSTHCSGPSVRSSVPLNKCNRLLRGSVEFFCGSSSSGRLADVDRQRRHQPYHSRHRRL

| Structure (SMILES) | Potency | max response, negative = inhibition |
| --- | --- | --- |
| CC(=O)c1c(C)[nH]c(C(=O)N2CCN(c3cc(Cl)ccc3C)CC2)c1C | inconclusive: 39.8 µM [activator, single point] |  |
| COc1ccc(OC)c(N/C(=N\c2nc(C)cc(C)n2)NC(=O)c2ccco2)c1 | inconclusive: 31.6 µM [activator, single point] |  |
| CCOC(=O)c1c(C)n(C)c2ccc(OC(=O)c3ccc([N+](=O)[O-])cc3)cc12 | inconclusive: 25.1 µM [inhibitor, single point] |  |
| O=C(c1ccc(Br)o1)N1CCN(c2ccc3nnc(-c4ccccc4)n3n2)CC1 | inconclusive: 31.6 µM [activator, single point] |  |
| CC(=O)Nc1nc(SCc2ccc(Cl)cc2Cl)n[nH]1 | inconclusive: 39.8 µM [inhibitor, single point] |  |
| O=C(N/N=C/c1ccc2c(c1)OCO2)c1cc(-c2ccncc2)nc2ccccc12 | inconclusive: 25.1 µM [activator, single point] |  |
| CCOC(=O)CN1C=C(c2ccc3ccccc3n2)C(C[N+](=O)[O-])c2ccccc21 (stereo not drawn) | active: 25.1 µM |  |
| CCOC(=O)COc1c(OC)cc(Cl)cc1C1Nc2ccccc2C(=O)N1c1cccc(C)c1 (stereo not drawn) | inconclusive: 25.1 µM [inhibitor, single point] |  |
| O=C(NCc1cccc(F)c1)C1CCCN(C(=O)N2CCOc3ccccc32)C1 (stereo not drawn) |  | inactive: -0.659% |
| Cc1ccc(NC(=O)C2CCN(S(=O)(=O)c3ccc4[nH]c5c(c4c3)CCCCC5)CC2)cc1 | active: 12.6 µM |  |
| Cc1ccc(C2OCC3(CO2)COC(c2ccc(C)cc2)OC3)cc1 (stereo not drawn) | inconclusive: 39.8 µM [inhibitor, single point] |  |
| Cc1nn(-c2ccccc2)c(Cl)c1C(=O)N(C)c1nc(-c2ccc(F)cc2)cs1 | inconclusive: 39.8 µM [inhibitor, single point] |  |
| COC(=O)c1c(NC(=O)CCCOc2ccc(C(C)(C)C)cc2)sc2c1C(C(=O)OC)CC2 (stereo not drawn) | inconclusive: 31.6 µM [activator, single point] |  |
| COc1ccc(OC)c(NC(=O)C(=O)N/N=C/c2ccccc2[N+](=O)[O-])c1 |  | inactive: -20% |
| CC(=O)OCC(=O)[C@H]1CC[C@H]2[C@@H]3CC=C4C[C@@H](O)CC[C@]4(C)[C@H]3CC[C@]12C | inconclusive: 7.94 µM [inhibitor, single point] |  |
| CCOC(=O)C1CCN(C(c2ccc(SC)cc2)c2c(O)cc(C)n(Cc3ccco3)c2=O)CC1 (stereo not drawn) | inconclusive: 25.1 µM [inhibitor, single point] |  |
| Cn1c(=O)c2c(nc(Oc3ccc4ccccc4c3)n2C)n(C)c1=O | inconclusive: 39.8 µM [activator, single point] |  |
| COCCNC(=O)Nc1cc(C(=O)NCc2ccc(C(C)C)cc2)ccc1N1CCCC1 | inconclusive: 39.8 µM [activator, single point] |  |
| Cc1ccccc1-n1nc(CO)c(C(=O)NCc2cccnc2)n1 |  | inactive: 8.8% |
| CC(C)c1nnc(NC(=O)CCC(=O)N2CCN(c3ccccn3)CC2)s1 |  | inactive: 2.38% |
| Cc1cc(C)cc(NC(=S)/N=C(\N)Nc2nc(C)c3ccccc3n2)c1 | inconclusive: 39.8 µM [inhibitor, single point] |  |

| Structure (SMILES) | Potency | max response, negative = inhibition |
| --- | --- | --- |
| COc1ccc(OC)c(NC(=O)c2c(N3CCCC3=O)c3cc(OC)ccc3n2C)c1 | inconclusive: 39.8 µM [activator, single point] |  |
| Cc1sc2nc(C(C)C)nc(SCC(=O)N3CCN(C(=O)c4ccco4)CC3)c2c1C | inconclusive: 31.6 µM [activator, single point] |  |
| Cn1c(SCC(=O)c2ccccc2)nnc1-c1cnccn1 |  | inactive: 4.8% |
| O=C1NC(=O)C2(COC(c3cccnc3)OC2)S1 (stereo not drawn) |  | inactive: 6.88% |
| COc1ccc(-c2cc(C)no2)cc1S(=O)(=O)Nc1c(C)cc(C)cc1C |  | inactive: -1.34% |
| CCOc1ccc(OCC)c(NS(=O)(=O)c2cc(-c3cnc(C)o3)ccc2OC)c1 | inconclusive: 39.8 µM [activator, single point] |  |
| Cc1ccc(Cn2c(CNS(=O)(=O)c3cccc([N+](=O)[O-])c3)nc3cccnc32)cc1 |  | inactive: -2.7% |
| O=C(COC(=O)c1cccc(S(=O)(=O)N2CCOCC2)c1)Nc1nc(-c2ccccc2Cl)cs1 | inconclusive: 31.6 µM [inhibitor, single point] |  |
| COc1ccc(OC)c(CNC(=O)c2ccc(C)c(NC(=O)c3nsc4ccccc34)c2)c1 |  | inactive: -6.35% |
| CCc1cccc(CC)c1NC(=O)C(NS(=O)(=O)c1cccs1)c1ccccc1 (stereo not drawn) | inconclusive: 25.1 µM [inhibitor, single point] |  |
| CCn1c2ccccc2c2cc(NC(=O)COc3ccc(C)cc3C)ccc21 | inconclusive: 15.8 µM [inhibitor, partial curve] |  |
| CCOC(=O)C1CCN(C(=O)c2cc(S(=O)(=O)N3CCOCC3)c(Cl)cc2Cl)CC1 | inconclusive: 20 µM [activator, single point] |  |
| Cc1ccc(COCCN2CCN(S(=O)(=O)c3ccc(C)cc3)CCC2=O)cc1 | inconclusive: 39.8 µM [activator, single point] |  |
| CCCCNC(=O)CSc1nnc(-c2c[nH]c3ccccc23)n1CC1CCCO1 (stereo not drawn) |  | inactive: 6.28% |
| Cc1ccc(NC(=S)/N=C(\N)Nc2nc(C)c3cc(C)ccc3n2)c(C)c1 | inconclusive: 39.8 µM [inhibitor, single point] |  |
| O=C(NCc1ccco1)[C@@H]1CSC2c3ccccc3C(=O)N21 (stereo partly drawn) |  | inactive: -0.593% |
| CCOC(=O)c1sc(NC(=S)NC(=O)C23CC4CC(CC(C4)C2)C3)cc1C | inconclusive: 39.8 µM [inhibitor, single point] |  |
| CC(C)CC(COCc1cccc(Cl)c1)N1CCN(C(=O)c2cccc(C(F)(F)F)c2)CCC1=O (stereo not drawn) | inconclusive: 31.6 µM [activator, single point] |  |
| CC(=O)OC1CC2C(C)(C)C(O)CC[C@@]2(C)C2CC[C@@]3(C)C(c4ccoc4)OC(=O)C4OC43[C@]12C (stereo partly drawn) | inconclusive: 10 µM [activator, partial curve] |  |
| O=C(Nc1nnc(C2CCCO2)s1)c1cccs1 (stereo not drawn) | inconclusive: 39.8 µM [inhibitor, single point] |  |
| Cc1c(Cc2ccccc2)sc(N)c1C(N)=O | inconclusive: 31.6 µM [inhibitor, single point] |  |

| Structure (SMILES) | Potency | max response, negative = inhibition |
| --- | --- | --- |
| C(/C=C/c1ccccc1)=N/N1CCN(c2ccccc2)CC1 | inconclusive: 31.6 µM [inhibitor, single point] |  |
| C/C=C(\C)C(=O)OC1C(OC(=O)C2(C)OC2C)c2cc3ccc(=O)oc3cc2OC1(C)C (stereo not drawn) | inconclusive: 39.8 µM [activator, single point] |  |
| CCOc1cc2c(cc1OCC)C(c1ccc(OC)cc1)N(c1ccccc1)C(=O)C2 (stereo not drawn) | inconclusive: 39.8 µM [activator, single point] |  |
| COc1ccccc1OCCCSc1nc(-c2ccc(C(C)(C)C)cc2)nc2cc(=O)[nH]n12 |  | inactive: -19.4% |
| COc1ccccc1CNC(=O)C1CCCN(C(=O)c2cnn(-c3ccc(F)cc3)c2-n2cccc2)C1 (stereo not drawn) | inconclusive: 31.6 µM [activator, single point] |  |
| COc1ccc2nc(N3C(=O)/C(=C/c4ccccc4)NC3=S)sc2c1 | active: 12.6 µM |  |
| CCOC(=O)c1sc(NCc2ccco2)c(-c2nc3ccccc3s2)c1N | inconclusive: 20 µM [inhibitor, single point] |  |
| O=C(Cn1c(=O)c2c(ncn2C2CCCC2)n(Cc2ccccc2)c1=O)N1CCc2ccccc21 | inconclusive: 25.1 µM [inhibitor, single point] |  |
| O=C(NCCc1ccc(F)cc1)C(=O)NCC(c1cccs1)S(=O)(=O)c1ccc(F)cc1 (stereo not drawn) |  | inactive: 1.73% |
| CCN(C(=O)CCS(=O)(=O)c1cc2[nH]c(=O)c(=O)[nH]c2cc1C)c1ccccc1 |  | inactive: -4.4% |
| Cc1cc2oc(=O)cc(CN3CCN(C/C=C/c4ccccc4)CC3)c2cc1O |  | inactive: -20.8% |
| O=C(CSc1nnc(COc2cccc3ccccc23)o1)N1CCN(C(=O)c2ccco2)CC1 | inconclusive: 39.8 µM [activator, single point] |  |
| Cc1ccc(Cl)cc1NS(=O)(=O)c1ccc2oc(=O)c3ncn(C)c3c2c1 |  | inactive: 20.4% |
| COc1cccc(CNC(=O)C(CC(C)C)NS(=O)(=O)c2ccc3c(c2)oc(=O)n3C)c1 (stereo not drawn) |  | inactive: 1.47% |
| Clc1ccc(OCCSCc2nc3ccccc3[nH]2)cc1 | active: 25.1 µM |  |
| O=C(CSc1nnc(SCc2ccc(Cl)cc2)s1)N1CCN(C(=O)c2ccco2)CC1 | inconclusive: 25.1 µM [activator, single point] |  |
| CCOc1ccc(C(c2c(O)cc(C)n(CCOC)c2=O)N2CCN(c3ccccc3)CC2)cc1 (stereo not drawn) | inconclusive: 31.6 µM [activator, single point] |  |
| CCn1cc(C(=O)N2CCN(c3cc(Cl)ccc3C)CC2)c(=O)c2cc(S(=O)(=O)N3CCOCC3)ccc21 | inconclusive: 5.01 µM [activator, full curve] |  |
| CCOc1ccc(-c2cc3nc(C4CCN(C(=O)OC(C)(C)C)CC4)c(C(=O)Nc4ccc(C)c(F)c4)cn3n2)cc1 | inconclusive: 6.31 µM [inhibitor, single point] |  |
| COc1cccc(/C=N/n2nnnc2N)c1OCc1ccccc1Cl | inconclusive: 25.1 µM [inhibitor, single point] |  |
| CCCC(=O)Oc1ccccc1C1SCc2cc(C)c(C)cc2CS1 | inconclusive: 39.8 µM [inhibitor, single point] |  |
